From the RNAGym collection of RNA variant scans (doi:10.7554/elife.90254)
The source gives no read counts; variants with many changes may rest on few reads.

B1: LINE1-mini (parent)
chain: GGCAGAGCUCAACACAGCGUGGCAAAGUGGCUGUGGCUAGACUGCC

Variants of: B1
Test: self-cleavage, relative activity (ratio to wild type); higher = more cleavage; in vitro, sequencing; the parent is a self-cleaving ribozyme

Variant	self-cleavage
GGCAGAGCUCAACACAGCCUGGCAAAGCGCCUGUGGCUAGACUGCC [G19C U28C G30C]	0.19
ACCGGAGCUCGACACAGCGUGGCAAAGUGGCUGUGGUUAGACUGCC [G1A G2C A4G A11G C37U]	0
GGCAGAGGUAAACACAGCGUGGCAAAAUGGCUUGGCCUAGACUGCC [C8G C10A G27A G33U U34G G36C]	0.01
GGCAGAGCUCAACACAGCGUGGCAGACUGGCUGUGUCUAGACUGCC [A25G G27C G36U]	0.04
AGCAGAGCUCAACACAGAGUCGCAAAGUGGCUGUCGCUAGACUGCC [G1A C18A G21C G35C]	0
GCCCGAGCUCAACACAGCGUGGCCAAGUGGCUGUGGCUAGAAUGCC [G2C A4C A24C C42A]	0.01
AGCUGAGCUCAACACAGCGUGCCAAAGUGGCUGUGGCUAGACUGCC [G1A A4U G22C]	0.06
GGCAGAGCUCAACAAAGCGUCGCAAAGUGGGUGUGGCUAGACUGCC [C15A G21C C31G]	0.06
CGCAGAGCUCAACACAGCGUGGCAAAGUGGCUGUUGAUAGACUGCC [G1C G35U C37A]	0.02
GGCAGAGCUCAACACAGCGUGCCAAAGUGGCUGAGGCUACACUGCC [G22C U34A G40C]	0.14
GGCAGACCUCAACACAGCGUGGCAAAGUGACUGUGGCUAGACUUCC [G7C G30A G44U]	0.25
GGCAGAGCUCAACACAGCGUGGCAAAGUGCCCCUGUCUAGACUGCC [G30C U32C G33C G36U]	0.01
GGCAGAGCUUAUCACAGCGUGGCAAAGUGGCUAUGACUAGACUGCC [C10U A12U G33A G36A]	0.02
GGCAGAGCUCCACACAGCGUGGCAAAGUGGUUGUGGCUAGAUUGCC [A11C C31U C42U]	0.02
GGCGGAGCUCAACACAGCGUGGCAAAGUGGCAAUGGCUAGACAGCC [A4G U32A G33A U43A]	0.03
GGCAGAGCUCAACAUAGCGUGUUAUAGUGGCUGCCGCUAGACUGCC [C15U G22U C23U A25U U34C G35C]	0.02
GACAGAGCUGAACACAGUGUCGCAAAGUGGCCGUGGAUACACUUCC [G2A C10G C18U G21C U32C C37A G40C G44U]	0
GGUGGAACUCAACACAGCGUGGCAAAGUGGCUGAGGCUAGAGUGCC [C3U A4G G7A U34A C42G]	0.01
GGCAGCGCUCAACACUGCGUGGCAAAGUGGCUGUGGCGAGACUGCC [A6C A16U U38G]	0.01

Variant	self-cleavage
GGCAGAGCUCAUCACAGAGUGGCAAAGUGGCUGUGGCUACACAGCC [A12U C18A G40C U43A]	0.07
GGCAGAGCCCAACACAGCCUGGCAAAGUGGUUUUGGCUAGACUGCC [U9C G19C C31U G33U]	0.06
GGCAGAGCUCAACACAGCGUGGCAAAGUGUCUGUGGCUAGACUCCA [G30U G44C C46A]	0.12
GGCAGAGCUCAACACAGCGUGGCAAAUGAGCGGUGGCUAGACUGCC [G27U U28G G29A U32G]	0.18
GGCAGAGCUCAACGCACCGCGGCAACGUGGCUGUGGCUAGACUGCC [A14G G17C U20C A26C]	0.28
GGCAGAGCUCAACACAGCGUGGCAAAGUGUCUGUGUGUAGACUGCC [G30U G36U C37G]	0.02
GGCAGAGCUCAACACAGCGUGGCAAUUUGACUUUGGCUAGACUGCC [A26U G27U G30A G33U]	0.06
GGCAGAGCUCAACACAGCGGAGCAAAGUGGCUGUGGCAAGCCUGCC [U20G G21A U38A A41C]	0.03
GGCAGAGCCCAACACAACGUGGCAAAGUGGCUGAGGCUAGACUGCC [U9C G17A U34A]	0.02
GCCAGAGCUAAACACACCGUGGCAAAGUGGCUGUUGCUAGACUGCC [G2C C10A G17C G35U]	0.03
GGCAGAACUCAACUCAGCGUGGCAAAGUGGUUGUGGCUAGACUGAC [G7A A14U C31U C45A]	0.55
GGCAGAGUUCAACACAGCGUGGCAAAGUGGCUGUGGCUAGACUGAU [C8U C45A C46U]	0.1
GGCAGAGCUCAACACAGCGUCGCAAAGUGAAUGUGGCUGGACUGCC [G21C G30A C31A A39G]	0.12
GUCAGCGCUCAACACAGCGUGGCAAAGUGGCUGUGGGUAGACUGCC [G2U A6C C37G]	0.04
GGCAGAGCUCAACACAGCAUGGCAAAGUGGCUGUGGGUAGACUGUC [G19A C37G C45U]	0.02
GGCAGAGCUCAACACCGUGUGGCAAAGUGGCUGUGGCUAGACUCCC [A16C C18U G44C]	0.02
UGCAGAGCUCAACACUGCGUGGCAAAGUGGCUGUGUCUAGACUGCC [G1U A16U G36U]	0.05
GGCAGAGCUCAACACAGUCUGGCAAAGUGGCUGUGGCCACACUGCC [C18U G19C U38C G40C]	0.04
GGCAGAGGUCAGCACAACUCGUCAAAGUGGCUGUGGCUAUACCGCC [C8G A12G G17A G19U U20C G22U G40U U43C]	0.01

Variant	self-cleavage
GGCAGAGCUCAACACAGCAUCGCAAAGUGGCUGUGUCUAUUCAGCC [G19A G21C G36U G40U A41U U43A]	0.15
GGAAGAGCUCAAAACAGCGUGGCAAACUGCCUGUAUCUAGACUGCC [C3A C13A G27C G30C G35A G36U]	0.17
GGCAUUGCUCAAGACAUCGUGGCAAAGUGGCUGUGGCUCUACUGCA [G5U A6U C13G G17U A39C G40U C46A]	0.03
GGCAAAGCUCAACACAGCGUGGCAAAGUGGCUGGGGCUAGACUGAC [G5A U34G C45A]	0.04
GGCAGAGCUCAACACAGCGUGUCAAAGUGGCUGUGGCUCGGAUGCC [G22U A39C A41G C42A]	0.06
GGUAGAGCUCAACACGGCGUGGCAAAGUGGCUGUGGCUAGAAAGCA [C3U A16G C42A U43A C46A]	0.18
GGCAGAGCUCACCACAGCGAGGCAACGUGGCGCCGCCUAGACUGCC [A12C U20A A26C U32G G33C U34C G36C]	0
GGGCGAGCUCAACACAGCGUGGCAACGAGGCUGUGGCUAGACUGCC [C3G A4C A26C U28A]	0.02
GCCAGAGCUCGACACAGCGUUGAAAAGUGGCUGUGGCUAGACGGCA [G2C A11G G21U C23A U43G C46A]	0.01
GGCUGAGCUCAACAAAGCGUGCCAAAGUGGCUCUGGCUAGACUGCC [A4U C15A G22C G33C]	0.03
GGCAGCGCUCAACACAGCGUGGUAAAGUGGCUGUGGAUAAACUGCC [A6C C23U C37A G40A]	0.07
GGCAGAGCUCAACACAGCGUGGCAUAGUGGGUGUGGCUAGACUGAC [A25U C31G C45A]	0.04
GGCAGCGCUCAACACAGCGUGGCAGAGUGGCUGUUGCUAGAAUGCC [A6C A25G G35U C42A]	0.01
GCCAGAGCUCAACUCAGCGUGGCAAAGUGGCUGUGGCUAUACUGCU [G2C A14U G40U C46U]	0.12
GGAAAAGCUUAACACAGCGUGGCAAAAUCGCUGUGGCUAGAAUGCC [C3A G5A C10U G27A G29C C42A]	0.01
GGCAGAGCUCAACCCAGCGUGUCAAAGUGGCUGUGGCGAGGCUACA [A14C G22U U38G A41G G44A C46A]	0
GGCACAGCUCAACACAGGGUGGCAAAGUGGCUGUGGCUAAACUGCC [G5C C18G G40A]	0.12
GGCAGAGCUCAAAACAGCGUAGCAAACUGGCUGUGGCUCGACUGCC [C13A G21A G27C A39C]	0.06
